Data published in PMC4336329 (PLoS ONE, 2015).
Screen size: about 310,000 compounds; about 14,000 (4.5%) showed an effect of 50% or more. The effect is printed as a negative number. This is one part of the list.

These compounds were tested against human ether-à-go-go-related gene (hERG) potassium channel (human, UniProt Q12809) (assay: primary screen, population patch clamp on CHO cells stably expressing hERG).
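Further: peak tail current of the secondary pulse compared with the same well before compound.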

Sequence of human ether-à-go-go-related gene (hERG) potassium channel (Q12809 whole entry, looked up): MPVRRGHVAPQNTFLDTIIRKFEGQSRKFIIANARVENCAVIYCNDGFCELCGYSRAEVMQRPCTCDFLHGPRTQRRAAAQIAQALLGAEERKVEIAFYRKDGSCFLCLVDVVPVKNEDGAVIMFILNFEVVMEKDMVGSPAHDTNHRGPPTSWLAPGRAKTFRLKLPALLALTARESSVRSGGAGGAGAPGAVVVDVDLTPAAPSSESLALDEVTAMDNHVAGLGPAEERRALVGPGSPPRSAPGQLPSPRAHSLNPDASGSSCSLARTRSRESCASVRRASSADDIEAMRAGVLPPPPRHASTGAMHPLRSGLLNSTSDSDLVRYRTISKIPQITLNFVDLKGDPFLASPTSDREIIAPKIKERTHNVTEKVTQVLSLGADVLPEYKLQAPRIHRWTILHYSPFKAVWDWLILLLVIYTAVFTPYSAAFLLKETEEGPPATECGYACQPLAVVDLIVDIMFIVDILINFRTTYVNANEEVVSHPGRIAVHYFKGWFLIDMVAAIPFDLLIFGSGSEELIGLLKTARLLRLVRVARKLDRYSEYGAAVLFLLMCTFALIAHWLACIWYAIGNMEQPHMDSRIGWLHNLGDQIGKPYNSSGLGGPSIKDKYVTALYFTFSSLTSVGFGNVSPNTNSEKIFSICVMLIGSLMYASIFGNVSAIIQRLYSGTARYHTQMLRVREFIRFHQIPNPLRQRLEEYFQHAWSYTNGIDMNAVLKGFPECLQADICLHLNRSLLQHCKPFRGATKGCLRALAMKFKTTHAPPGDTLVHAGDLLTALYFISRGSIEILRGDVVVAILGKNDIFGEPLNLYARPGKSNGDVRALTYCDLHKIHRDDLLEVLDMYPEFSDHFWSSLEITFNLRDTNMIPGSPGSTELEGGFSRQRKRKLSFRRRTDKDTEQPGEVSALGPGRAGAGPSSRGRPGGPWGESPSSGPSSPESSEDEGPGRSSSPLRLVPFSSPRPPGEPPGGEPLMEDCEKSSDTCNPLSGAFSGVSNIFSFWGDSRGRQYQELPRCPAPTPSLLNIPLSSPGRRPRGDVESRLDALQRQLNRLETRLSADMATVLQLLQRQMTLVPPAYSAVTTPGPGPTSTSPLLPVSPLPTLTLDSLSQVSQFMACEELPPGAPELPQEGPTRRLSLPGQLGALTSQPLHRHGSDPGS

Compound | hERG current change (%, negative = inhibition) at 10uM [%]
Cc1ccc(S(=O)(=O)N(C)C)cc1-n1c(SCC(=O)Nc2ccc(F)cc2)nc2ccccc2c1=O | -4.96
Cc1ccc(CCNC(=O)c2sc3nc4n(c(=O)c3c2C)CCC4)cc1 | -26.7
CC1CN(C(=O)C2CCCC2)C(C)CN1C(=O)C1CCCC1 (centres unmarked) | 12.8
COc1ccccc1NC(=O)c1sc2ncn(Cc3ccccc3C)c(=O)c2c1C | 10.4
CCOC(=O)c1c(C)[nH]c(C)c1C(=O)COC(=O)c1ccc(S(=O)(=O)N(CC)CC)cc1 | -3.99
COc1ccccc1NC(=O)CN1CCN(CC(=O)Nc2ccc3c(c2)OCO3)CC1 | -72
CCOC(=O)C1(CCc2ccccc2)CCN(Cc2cnc(N(C)C)s2)CC1 | -83
CCN(CC)C(=O)c1c(C)[nH]c(=S)c(C#N)c1-c1ccco1 | 14.6
COc1cc(CNc2ccc(N3CCCC3)cc2)ccc1OCc1ccccc1F | 31.8
O=C(Nc1ccccc1C(=O)N1CCN(Cc2ccccc2)CC1)c1ccccc1 | -5.07
CC1(C)Oc2ccc(/C=C/C(=O)N3CCOCC3)c(O)c2C(N2CCOCC2)C1O (centres unmarked) | 1.68
O=C(NNC(=O)c1ccc2ccccc2c1O)c1ccccc1Cl | 4.02
O=C(CC(NC(=O)c1ccccc1)c1ccccc1)Nc1cccc2ccccc12 (centres unmarked) | 24.1
Cc1ccc(NC(=O)Cn2cnc([N+](=O)[O-])c2)cc1C | 2.82
Cc1noc(C)c1COC(=O)CCC(=O)c1ccc(F)cc1 | 0.0774
CCNc1ccc(Br)cc(C(=O)/C=C/c2c(Cl)cccc2Cl)c1=O | 3.03
COc1cccc(C2c3c(oc4cc(C)c(C)cc4c3=O)C(=O)N2CCCN(C)C)c1 (centres unmarked) | -25.9
CCOc1ccc(-c2nc(CSCC(=O)NCc3ccco3)c(C)o2)cc1 | -20.7
CCOC(=O)C1(C)/C(=N/Nc2ccccc2OC)C(=O)C(=O)N1c1ccccc1 (centres unmarked) | 4.48
O=C(O)C1Nc2ccc(C(F)(F)F)cc2C2OCCC12 (centres unmarked) | 6.25
COc1ccccc1CNC(=O)CN1C(=O)C(C)N(c2ccc(C)cc2)C1=O (centres unmarked) | -13.8
CCCOc1ccc(-c2c(C(=O)N/N=C(\C)c3ccncc3)nnn2-c2nonc2N)cc1 | 18.4

Compound | hERG current change (%, negative = inhibition) at 10uM [%]
C/C(=N\Nc1nnc(-c2ccccc2)c(-c2ccccc2)n1)c1cccc([N+](=O)[O-])c1 | -4.9
CC(=O)Nc1ccc(NC(=O)c2ccccc2N(Cc2ccccc2)S(C)(=O)=O)cc1 | 3.05
Cc1ccccc1-n1nnnc1SCc1csc(-c2ccccc2)n1 | -1.68
COc1cc(C(=O)OCC(=O)NCc2ccco2)cc(OC)c1OC | 1.04
O=C(Nc1ccc(F)cc1)NC1CCCc2ccccc21 (centres unmarked) | 25.5
O=S(=O)(NC(=S)NC1CCCCC1)c1cccs1 | 18.5
CCN1CCN(Cc2ccc(NC(=O)c3ccc(C)c(NC(=O)c4ccno4)c3)cc2C(F)(F)F)CC1 | -2.76
COc1ccc(-n2c(C)c(C)c3c(NCCN(C)C)ncnc32)cc1 | -32.4
CCN1CCN(C(=O)CN(c2cccc(Br)c2)S(=O)(=O)c2ccccc2)CC1 | -37.5
Clc1ccc(-n2nnnc2-c2ccccc2)cc1 | -0.933
O=C(/C(=C/O)N=Nc1ccccc1)c1ccco1 | 6.46
COC(=O)c1cc(-c2ccc(C)cc2)n[nH]1 | -0.0688
COc1cc(CC(=O)OCC(=O)Nc2cc(S(=O)(=O)N3CCCC3)ccc2Cl)cc(OC)c1OC | -11.2
CSc1nc2c(c(=O)[nH]1)C(c1ccc(Cl)cc1)CC(=O)N2 (centres unmarked) | 20.5
O=C(CCNC(=O)c1ccc(Cl)cc1)Nc1c(F)c(F)cc(F)c1F | 1.93
CC(=O)Oc1ccc(C(=O)N2c3ccccc3NC(=O)C2C)cc1 (centres unmarked) | 7.6
Cc1ccc2c(c1)C(c1ccccc1)=NCC(=O)N2C | 3.88
O=C(Nc1ccc(Cl)c(C(F)(F)F)c1)NC1CC2CCCC(C1)N2Cc1ccccc1 (centres unmarked) | -71
COC(=O)c1ccc2c(=O)n(CCCN3CCOCC3)c(=S)[nH]c2c1 | -3.53
COc1ccc2c(C)cc(SCC(=O)Nc3cccnc3Cl)nc2c1 | 10.3
O=C(NCc1ccccc1)C(c1cccnc1)N(C(=O)c1csnn1)c1ccc(F)cc1 (centres unmarked) | -12.5
COCCCNC(=O)Cn1c(=O)n(CC(=O)N2CCCCC2)c(=O)c2sccc21 | 12.1

Compound | hERG current change (%, negative = inhibition) at 10uM [%]
COCCNC(=O)C1CC(c2cccc([N+](=O)[O-])c2)=NO1 (centres unmarked) | 15.8
c1nc(Nc2ccc(N3CCOCC3)cc2)c2ccsc2n1 | -7.59
COc1ccc(N=N/C(=C\O)C(=O)c2ccco2)cc1 | 3.51
O=c1c2ccccc2[nH]c2ccc(F)cc12 | 17.8
COc1ccc(NS(=O)(=O)c2cccc3nsnc23)cc1Cl | 11.2
CN(C(=O)COC(=O)C1COc2ccccc2O1)c1c(N)n(Cc2ccccc2)c(=O)[nH]c1=O (centres unmarked) | 2.18
O=c1c2ccccc2oc2nc(C3CCCCC3)n(Cc3ccco3)c(=O)c12 | -16.3
COc1ccccc1NC(=O)c1nnn(Cc2ccccc2)c1NC(C)=O | 2.36
COc1cc(C(=O)N2CCN(C)C(C)C2)ccc1OC1CCN(C(C)=O)CC1 (centres unmarked) | 7.3
Cc1cc(C)c[n+](C[n+]2cc(C)cc(C)c2)c1.[Br-] | 9.57
Clc1cccc(Nc2ncnc3ccc(Br)cc23)c1 | -5
CCN1CCc2c(sc(NC(=O)c3ccc(S(=O)(=O)N4CCOCC4)cc3)c2C(=O)OC)C1.Cl | -42.2
COc1ccccc1NC(=O)c1cccc(N2C(=O)C3C4C=CC(C4)C3C2=O)c1 (centres unmarked) | -8.28
CN(C(=S)Nc1ccccc1)c1ccccc1 | -3.7
COc1ccc2nc(NC(=O)c3ccc(-c4cccc([N+](=O)[O-])c4)o3)sc2c1 | 18
O=C(Nc1ccccc1)c1ccccc1OCC(O)CN1C(=O)c2ccccc2S1(=O)=O (centres unmarked) | -8.85
O=C(NNC(=O)c1ccc(Cl)c(S(=O)(=O)Nc2ccc(Cl)cc2)c1)c1ccc(=O)[nH]c1 | 8.75
Cc1ccc(S(=O)(=O)N2CCOC2CNC(=O)C(=O)NCc2ccccc2)cc1 (centres unmarked) | -10.3
O=C(CS(=O)(=O)c1ccccc1)N1CCc2ccccc21 | -8.39
O=C(CSc1nnc(-c2cccnc2)o1)NNC(=O)c1ccc(Br)cc1 | 2.19
O=C1CCC(C(=O)NCCCn2ccnc2)N1 (centres unmarked) | 10.7
COc1cc2c(cc1OC)CN(C(=O)Nc1ccccc1)CC2 | 16.2

Compound | hERG current change (%, negative = inhibition) at 10uM [%]
O=c1[nH][nH]c(C(F)(F)F)c1C=Nc1ccccc1 | 11.6
O=C(NCCN1CCOCC1)c1ccc(NC(=O)C2COc3ccccc3O2)cc1 (centres unmarked) | 13.5
O=C(C1CCCN(S(=O)(=O)c2ccc(Cl)cc2)C1)N(Cc1cccs1)C1CC1 (centres unmarked) | -63
COc1ccc(NC(=O)c2cc3c(CO)cnc(C)c3oc2=Nc2cc(OC)cc(OC)c2)cc1 | 29
O=C(OCc1ccccc1)C1CCCN1C(=O)c1cccs1 (centres unmarked) | -1.75
COc1ccc(/C=C(\NC(=O)c2ccc([N+](=O)[O-])cc2)C(=O)NCCCN2CCOCC2)cc1 | -77
CCCCn1c(SCC(=O)NCc2ccc(OC)c(C(=O)O)c2)nc2cc(S(N)(=O)=O)ccc21 | 25.8
O/N=C(\c1ccc(Cl)cc1)c1ncc(C(F)(F)F)cc1Cl | 5.85
CCc1ccc(CNCCc2ccccc2F)cc1 | -67.7
O=[N+]([O-])c1ccc(N2CCN(c3cccc(Cl)c3)CC2)cn1 | -63.2
CCc1ccc(NC(=O)C(C)OC(=O)c2cc(=O)[nH]c3ccc(S(=O)(=O)Nc4ccc(F)cc4)cc23)cc1 (centres unmarked) | 10.4
CCOC(=O)CSc1nnc(-c2c[nH]c3ccccc23)o1 | 6.78
Cc1cc(OC(=O)c2ccccc2C(F)(F)F)c([N+](=O)[O-])c(=O)[nH]1 | 3.81
Cn1c(N)c(C(=O)COC(=O)c2ccc(Cl)nc2)c(=O)n(C)c1=O | 0.356
CCOc1cccc(C2CC(=O)Nc3cc(OC)c(OC)cc32)c1 (centres unmarked) | -5.69
Cc1cc(-c2ccc(S(=O)(=O)N3CCN(c4cccc(C)c4C)CC3)s2)on1 | -26.7
COc1ccc(S(=O)(=O)N2CCC(Cc3ccccc3)CC2)cc1NC(C)=O | 20.5
O=C(NCCc1ccncc1)Nc1ccccc1 | -4.94
CCc1ccccc1OCC(=O)Nc1ccc(C)c(S(=O)(=O)N2CCCCCC2)c1 | -11
Cc1ccc(CNC(=O)c2cncc(Br)c2)cc1 | 6.72
